Source: PubChem BioAssay AID1508624 (National Center for Advancing Translational Sciences (NCATS), 2021)
Out of some 48,000 compounds screened, about 120 (0.25%) were called active. Roughly 4% stayed inconclusive and do not appear here. Calls follow the shape of the dose curve; as a rule, active = well fitted activation curve with a large enough effect; inconclusive = small, poorly fitted or top-dose-only effect, or another doubt; inactive = no such curve, though single readings can be large or run the other way. Some of the results follow.

assay: Primary qHTS for Identification of Small Molecule Activators of Huntingtin-Antisense Promoter Activity; conditions: HEK293 HTT-AS promoter firefly luciferase reporter, 24 h; series mostly up to 57.5 µM; activity change, positive = activation: at the top concentration; also: nearly all actives have a fitted effect of over 55% in size
In short: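 Firefly luciferase signal from promoter-reporter HEK293 cells was scaled between vehicle (0%) and zero RLU (-100%). Compounds were tested at final concentrations of up to 57.5 uM over 24 h at 37 degrees C. PTC124 at 50 uM final served as control inhibitor.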

Activity change, positive = activation, inactive:
OCc1ccc(Cl)cc1Cl -5.21%
Cc1c(Cl)cccc1NC(=O)N1CCC(CN2CCOCC2)CC1 4.83%
Cc1nc2cc(-c3ccc(Cl)cc3)nn2c(C)c1CCC(=O)N1CCN(c2ccccc2)CC1 -75.3%
CCCCCCCCCCCCCCCC(=O)OC[C@@H](NC(=O)C(Cl)Cl)[C@H](O)c1ccc([N+](=O)[O-])cc1 -15.1%
CCN(C(=O)CSc1nnc(-c2cc3occc3n2C)n1-c1ccccc1C)c1ccccc1 -3.37%
O=C(CN1C(=O)COc2ccc(S(=O)(=O)N3CCOCC3)cc21)NCc1ccc(Cl)cc1 -4.52%
CS(=O)(=O)c1ncc(Cl)c(C(=O)N2CCN(c3cccc(Cl)c3)CC2)n1 -94.3%
CC1c2ccccc2CN1NC(=O)c1ccc(Cl)c(S(N)(=O)=O)c1 (stereo not given) -7.76%
CCOc1ccc(Nc2sc(C(=O)c3ccc(F)cc3)c(N)c2S(=O)(=O)c2ccc(C)cc2)cc1 -12.4%
Cc1oc2ncn(CC(C)C)c(=O)c2c1C(=O)NCc1cccc(Cl)c1 -14.5%
CC(C)Oc1ccc(CNC(=O)c2cc3cccc4c3n2CC(C)S4)cc1 (stereo not given) -11.1%
CCc1ccc(-c2nc3c(c(SCc4ccccc4)n2)Cc2c(CO)cnc(C)c2O3)cc1 -13.9%
Cc1ccc(-c2onc(C)c2C)cc1S(=O)(=O)N1CCC(C)CC1 -48.7%
Cc1ccc(Cn2c(C(=O)Nc3ccc(Cl)cc3)cc3sccc32)cc1 -0.383%
COc1ccc(Cl)cc1NC(=O)c1ccc(CN2C(=O)CCn3nc(C)cc32)cc1 -28.7%
COc1cc(Cl)c(C)cc1NC(=O)CNC(=O)Cn1ccc2ccccc2c1=O -11.8%
CCOc1ccc(OCCOCCn2c(-c3ccc(Cl)cc3)nc3ccccc3c2=O)cc1 -14.7%
Cc1cccc(-c2nc(SCCCOc3cc(C)c(Cl)c(C)c3)n3[nH]c(=O)cc3n2)c1 7.1%
CSc1ncc(C(=O)NCc2ccc(F)cc2)c(-c2ccccc2)n1 -16.9%
CCCCN(CC)CCCNC(=O)Cn1nc(CC)n2c(cc3sccc32)c1=O -6.13%
COc1ccc2c(c1)c1c(c(=O)n(CCc3ccccc3)c(=O)n1Cc1cccc(C)c1)n2C -10.4%
CCOC(=O)c1ccc(NC(=O)CCCn2nc(C)c3sc4ccccc4c3c2=O)cc1 -24.3%
CCCc1oc2ccc(NS(=O)(=O)c3ccc(OCC)cc3)cc2c1C(=O)OCC -38.7%
COC(=O)CC(=O)CSc1nc2cc(C(=O)NC(C)C)ccc2c(=O)n1CCc1ccccc1 -5.41%
Cc1ccc(C(=O)OC2=C(C(=O)c3ccccc3)N(C)S(=O)(=O)c3ccccc32)cc1 -40.9%
O=C(Cc1ccc(-c2ccccc2)cc1)NCCS(=O)(=O)N1CCN(c2cccc(Cl)c2)CC1 -4.96%
CC(=O)N1CCC2(CC1)OC(=O)C(C)=C2C(=O)NCc1ccccc1Cl 24.4%
CC(=O)OC1=C(C(C)=O)N(Cc2ccccc2)S(=O)(=O)c2ccccc21 -12.4%
Cc1cc(NC(=O)c2ccc(F)cc2)ccc1-c1cc2ccccc2oc1=O 14.3% [at 11.5 µM, percent change from vehicle, -100% = no light]
Cc1ccc(Cl)cc1NC(=O)c1csnn1 3.61%
CC1CCN(C(=O)CCS(=O)(=O)c2cc3c(cc2Cl)NC(=O)CO3)CC1 -15.7%
CCOC(=O)c1nnn(CC(=O)NC(=O)Nc2ccccc2F)c1C(=O)OCC -15.8%
CCCCSc1nnc2[nH]c(=O)cc(C)n12 -0.456%
O=C(c1cc(-c2ccc(Br)cc2)n[nH]1)N1CCN(S(=O)(=O)c2ccc(Br)s2)CC1 -31.1%
CCOc1ccc(Nc2nc(N)c(C(=O)c3ccccc3Cl)s2)cc1 -24.9%
CCN(CC)S(=O)(=O)c1ccc(NC(=O)c2nn(C)c3c2CSc2ccccc2-3)cc1 -25.9%
Cc1cccc(CC(=O)NC2CC(=O)N(c3ccc4c(c3)OCCO4)C2)c1 (stereo not given) -0.511%
Fc1ccc(Nc2nc(SCc3cccc(F)c3)nc3ccccc23)cc1 -34.9%
Cc1ccccc1CSc1ncc(Cl)c(C(=O)NCc2ccccc2)n1 -17.8%
CCOC(=O)c1ccc(N2C(=O)c3[nH]nc(-c4ccc(C)cc4)c3C2c2ccc(O)cc2)cc1 (stereo not given) -65.3%
CCC(=O)N1CCc2cc(Br)cc(S(=O)(=O)CCC(=O)Nc3ccc(CC)cc3)c21 11.3%
COc1cc2c(cc1OC)C(COc1ccc3c(C)cc(=O)oc3c1)N(C(=O)c1ccc(C)cc1)CC2 (stereo not given) -17.8%
Cc1ccc(C)c(NC(=O)CSc2nc(=O)n(CCN3CCOCC3)c3c2CCC3)c1 -4.31%
COc1ccc(C2c3c(n(C)c4ccccc34)C(=O)N2CC(=O)Nc2c(C)cc(C)cc2C)cc1 (stereo not given) -14.6%
CCC(=O)N1c2ccccc2CC1C(=O)NCCCN1CCN(c2cccc(Cl)c2)CC1 (stereo not given) -6.99%
CC(C)Cn1cc(NC(=O)NCc2ccc(Cl)cc2)c2ccccc2c1=O -10.1%
CCOc1ccccc1CNC(=O)C(CC)n1nc(C)c2c(C)n(-c3ccccc3)nc2c1=O (stereo not given) -20.3%
Cc1c(C(=O)NCc2ccccc2Cl)sc2nc3n(c(=O)c12)CCCC3 15.3%
COc1ccc(Br)c2c1-c1nc(NC(=O)c3ccc(F)cc3)sc1C2 -2.18%
CCOC(=O)N1CCC(NC(=O)c2ccc3c(c2)N(Cc2ccccc2)C(=O)c2ccccc2S3(=O)=O)CC1 -29.7%
Cc1ccc2c(c1)C(=O)OC(C(=O)Nc1ccc(C(=O)O)cc1)C2 (stereo not given) 0.793%
O=C(Nc1ccc(Cl)cc1)c1ccc2oc(=O)n(Cc3ccccc3)c2c1 -16.2%
COc1ccc(C(=O)CN2CCN(S(=O)(=O)c3ccc(F)cc3)CC2)cc1 -16.4%
COCCCNc1nc2c(c(=O)n(Cc3ccccc3)c(=O)n2C)n1C 0.322%
Cc1ccc(Sc2ccc(N3CCCC(C(=O)Nc4ccc(Br)cc4)C3)nn2)cc1 (stereo not given) -24.8%
Cc1c(C)n(Cc2ccccc2)c2ccc(C(=O)N3CCN(c4ccccc4F)CC3)cc12 -2.09%
Cc1nc2ccn(Cc3cccnc3)c(=O)c2cc1C(=O)N1CCN(c2ccccc2F)CC1 -4%
O=C(NCCc1ccc(Cl)cc1)c1cc(-c2ccccc2)n[nH]1 -14.4%
COc1ccc(SCc2cc(=O)c3ccc(C)c(C)c3[nH]2)cc1 -13.8%
CCOc1ccc(-c2nnc(SCC(=O)NC3CCCCC3)nc2-c2ccc(OCC)cc2)cc1 1.39%
Cc1ccc(C)c(N2CCN(c3nc4ccccc4c(=O)n3-c3ccc(Cl)cc3)CC2)c1 -22.3%
COc1ccc2c(c1)Cc1sc(NC(=O)c3ccccc3C)nc1-2 17%
COc1ccc(NC(=O)Cn2cnc3ccc(S(=O)(=O)N4CCC(C)CC4)cc3c2=O)c(OC)c1 -29.2%
COc1cccc(CNC(=O)c2ccc(-c3nc(CS(=O)c4ccccc4)c(C)o3)cc2)c1 (stereo not given) -30.4%
COc1cc2nc(N(C)CCCNC(=O)C3CCCO3)nc(N)c2cc1OC (stereo not given)
COc1ccc(C2=C(C)C(N3CCC(C(=O)NCc4ccc(C)o4)CC3)=NS2(=O)=O)cc1 -6.31%
CCN(CCCNC(=O)CSc1cc(=O)n(CC)c2ccccc12)c1ccccc1 0%
Clc1ccc(Cn2c(CN3CCCC3)nc3ccccc32)cc1 -10.3%
Oc1ccc2ccccc2c1SSc1c(O)ccc2ccccc12 -22%
O=C(NC1CCCC1)c1ccc2c(=O)n(Cc3ccccc3)c(SCc3ccc([N+](=O)[O-])cc3)nc2c1 -2.67%
CCc1ccc(NC(=O)Nc2cn(C)c(=O)c3ccccc23)cc1 -32.7%
CCc1ccc(CNC(=O)Cn2ccc3cc(S(=O)(=O)N4CCCCCC4)ccc32)cc1 -21%
CCc1ccc(-n2nc(CO)c(C(=O)NC(C)c3ccc(Cl)cc3)n2)cc1 (stereo not given) -3.9%
COc1cccc(CNC(=O)CN2C(=O)CCc3cc(S(=O)(=O)N4CCOCC4)ccc32)c1 -17%
COc1ccc(OC)c2sc(N(Cc3cccnc3)C(C)=O)nc12 -2.7%
CCOC(=O)N1CCN(Cc2nc3cc(NC(=O)CC)ccc3n2C(C)C)CC1 -41.3%
COC(=O)c1nnn(-c2cccc(C)c2)c1N 12.5%
COc1ccc(-n2c(SCc3nc(-c4ccc(C)cc4)no3)nnc2-c2ccccc2)cc1 -7.6%
CC(C)Oc1ccc(CNC(=O)CN2C(=O)CCn3nc(-c4cn(C)c5ccccc45)cc32)cc1 -16.8%
CCOC(=O)c1ccc(NC(=O)CN(Cc2ccc(C)cc2)S(=O)(=O)c2ccc(C)cc2)cc1 -6.42%
CC1CN(C(=O)Nc2ccc(C(=O)NCc3ccccc3F)cc2)c2ccccc2S1 (stereo not given) -25.8%
COC(=O)c1ccc(NC(=O)CSc2n[nH]c(-c3ccccc3)n2)cc1 -12.2%
COc1ccc(OC)c(-c2nnc3ccc(-c4ccc(OC)c(O[C@@H]5CCOC5)c4)nn23)c1 -31.3%
Fc1ccccc1N1CCN(Cc2nnc(-c3ccc4c(c3)OCO4)o2)CC1 -8.6%
Cc1ccc(C)c(N2C(=O)N(Cc3ccccc3C)c3ccccc3S2(=O)=O)c1 -43.2%
Cc1ccccc1OCC(=O)Nc1ccc2oc(-c3ccc(F)cc3)nc2c1 -2.36%
O=C(Nc1nc2c(Cl)cccc2s1)c1ccc(S(=O)(=O)N2CCc3ccccc32)cc1 -41.7%
CCN(CC)c1ccc(NC(=O)Cn2ncc3c(C)n(Cc4ccccc4F)c(C)c3c2=O)c(C)c1 -3.56%
Cc1ccc(NC(=O)Cc2ccc(NC(=O)N3CCCCc4ccccc43)cc2)cc1Cl -6.91%
CCOC(=O)c1ccc(N2C(=O)c3n[nH]c(-c4ccco4)c3C2c2ccc(OC)cc2OC)cc1 (stereo not given) -60.4%
COc1cccc(-c2nc(S(=O)(=O)c3ccc(C)cc3)c(N3CCCCCC3)o2)c1 -21.3%
Cc1cccc(C)c1-n1ncc(C(=O)NCCCN2CCCCC2)c1C1CCN(C(=O)OC(C)(C)C)CC1 -21%
CCCCOc1ccc(C(=O)NCC(c2ccc(Cl)cc2)N2CCOCC2)cc1 (stereo not given) 8.06%
COc1ccc(-c2nc(-c3cc4cc(Br)ccc4oc3=O)cs2)cc1 1.82%
COc1ccccc1N1CCN(c2nc3ccccc3n3cnnc23)CC1 15.7%
